# Measured values published in the supplement of paper PMC8728848.
# This is one part of the list.
# Assays:
# Assay in all cases: glycan array binding signal (z-score within array); higher = stronger binding
# Settings in all cases: glycan notation: IUPAC condensed, linker removed
# [1] = target: Gal(b1-4)GlcNAc(b1-3)Gal(b1-4)GlcNAc(b1-3)Gal(b1-4)GlcNAc
# Procedure, shortened: (§1)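 The binding signal is a Z-score computed within each array and averaged over linkers. Arrays of the same protein sequence at different concentrations or buffers were also averaged together. Data originate from 3228 arrays in the Consortium for Functional Glycomics database, kept only where the protein sequence was available.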
# [2] = target: Gal(b1-4)GlcNAc(b1-3)Gal(b1-4)[Fuc(a1-3)]GlcNAc(b1-3)Gal(b1-4)[Fuc(a1-3)]GlcNAc
# Procedure, shortened: as §1
# [3] = target: Gal(b1-4)GlcNAc(b1-3)GalNAc
# Procedure, shortened: as §1
# [4] = target: Gal(b1-4)GlcNAc(b1-3)[Gal(b1-4)GlcNAc(b1-6)]Gal(b1-4)GlcNAc
# Procedure, shortened: as §1
# [5] = target: Gal(b1-4)GlcNAc(b1-3)[GlcNAc(b1-6)]Gal(b1-4)GlcNAc
# Procedure, shortened: as §1
# [6] = target: Gal(b1-4)GlcNAc(b1-6)Gal(b1-4)GlcNAc
# Procedure, shortened: as §1
# [7] = target: Gal(b1-4)GlcNAc(b1-6)Gal(b1-4)GlcNAc(b1-6)GalNAc
# Procedure, shortened: as §1
# [8] = target: Gal(b1-4)GlcNAc(b1-6)GalNAc
# Procedure, shortened: as §1
# [9] = target: Gal(b1-4)GlcNAc(b1-6)[Gal(b1-3)]GalNAc
# Procedure, shortened: as §1
# Gal3S(b1-3)GalNAc = target: Gal3S(b1-3)GalNAc
# Procedure, shortened: as §1
# Gal3S(b1-3)GlcNAc = target: Gal3S(b1-3)GlcNAc
# Procedure, shortened: as §1
# [10] = target: Gal3S(b1-3)[Fuc(a1-4)]GlcNAc
# Procedure, shortened: as §1
# Gal3S(b1-4)Glc = target: Gal3S(b1-4)Glc
# Procedure, shortened: as §1
# Gal3S(b1-4)Glc6S = target: Gal3S(b1-4)Glc6S
# Procedure, shortened: as §1
# Gal3S(b1-4)GlcNAc = target: Gal3S(b1-4)GlcNAc
# Procedure, shortened: as §1
# Gal3S(b1-4)GlcNAc6S = target: Gal3S(b1-4)GlcNAc6S
# Procedure, shortened: as §1
# [11] = target: Gal3S(b1-4)[Fuc(a1-3)]Glc
# Procedure, shortened: as §1
# Gal3S4S(b1-4)GlcNAc = target: Gal3S4S(b1-4)GlcNAc
# Procedure, shortened: as §1
# Gal3S6S(b1-4)GlcNAc = target: Gal3S6S(b1-4)GlcNAc
# Procedure, shortened: as §1
# Gal3S6S(b1-4)GlcNAc6S = target: Gal3S6S(b1-4)GlcNAc6S
# Procedure, shortened: as §1
# Gal4S(b1-4)GlcNAc = target: Gal4S(b1-4)GlcNAc
# Procedure, shortened: as §1
# Gal4S6S(b1-4)GlcNAc = target: Gal4S6S(b1-4)GlcNAc
# Procedure, shortened: as §1
# Gal6S(b1-4)Glc = target: Gal6S(b1-4)Glc
# Procedure, shortened: as §1
# Gal6S(b1-4)Glc6S = target: Gal6S(b1-4)Glc6S
# Procedure, shortened: as §1
# Gal6S(b1-4)GlcNAc = target: Gal6S(b1-4)GlcNAc
# Procedure, shortened: as §1
# Gal6S(b1-4)GlcNAc6S = target: Gal6S(b1-4)GlcNAc6S
# Procedure, shortened: as §1
# GalNAc(a1-3)Gal = target: GalNAc(a1-3)Gal
# Procedure, shortened: as §1
# GalNAc(a1-3)GalNAc = target: GalNAc(a1-3)GalNAc
# Procedure, shortened: as §1
# GalNAc(b1-3)Gal = target: GalNAc(b1-3)Gal
# Procedure, shortened: as §1
# [12] = target: GalNAc(b1-3)Gal(a1-4)Gal(b1-4)GlcNAc
# Procedure, shortened: as §1
# GalNAc(b1-3)GalNAc = target: GalNAc(b1-3)GalNAc
# Procedure, shortened: as §1
# GalNAc(b1-4)GlcNAc = target: GalNAc(b1-4)GlcNAc
# Procedure, shortened: as §1
# Glc(a1-4)Glc = target: Glc(a1-4)Glc
# Procedure, shortened: as §1
# Glc(a1-6)Glc(a1-6)Glc = target: Glc(a1-6)Glc(a1-6)Glc
# Procedure, shortened: as §1
# Glc(b1-4)Glc = target: Glc(b1-4)Glc
# Procedure, shortened: as §1
# Glc(b1-6)Glc = target: Glc(b1-6)Glc
# Procedure, shortened: as §1
# GlcA(b1-3)Gal = target: GlcA(b1-3)Gal
# Procedure, shortened: as §1
binder,measurement,setting,value
"CBM32-4 (Clostridium perfringens), P26831 (protein) MGSSHHHHHHSSGLVPRGSHMASVYEPSLVDAYVGDDGAKKAVDGDLKTRVKFLGAPSTGDTIVYDLGQEILVDNLKYVVLDTEVDHVRDGKIQLSLDGETWTDAINIGDGVENGVDDMFSTPLKNGYKHGNQSGGIVPIDSAYVEGDNLNQKARYVRILFTAPYRHRWTVINELMINNGEYIPTVNDPT",glycan array binding signal (z-score),[1],0.696
same,glycan array binding signal (z-score),[2],-0.457
same,glycan array binding signal (z-score),[3],-0.425
same,glycan array binding signal (z-score),[4],-0.378
same,glycan array binding signal (z-score),[5],-0.257
same,glycan array binding signal (z-score),[6],-0.385
same,glycan array binding signal (z-score),[7],-0.304
same,glycan array binding signal (z-score),[8],-0.391
same,glycan array binding signal (z-score),[9],-0.383
same,glycan array binding signal (z-score),Gal3S(b1-3)GalNAc,-0.264
same,glycan array binding signal (z-score),Gal3S(b1-3)GlcNAc,0.482
same,glycan array binding signal (z-score),[10],-0.312
same,glycan array binding signal (z-score),Gal3S(b1-4)Glc,0.108
same,glycan array binding signal (z-score),Gal3S(b1-4)Glc6S,3.44
same,glycan array binding signal (z-score),Gal3S(b1-4)GlcNAc,-0.195
same,glycan array binding signal (z-score),Gal3S(b1-4)GlcNAc6S,3.83
same,glycan array binding signal (z-score),[11],-0.252
same,glycan array binding signal (z-score),Gal3S4S(b1-4)GlcNAc,3.87
same,glycan array binding signal (z-score),Gal3S6S(b1-4)GlcNAc,1.94
same,glycan array binding signal (z-score),Gal3S6S(b1-4)GlcNAc6S,5.67
same,glycan array binding signal (z-score),Gal4S(b1-4)GlcNAc,-0.149
same,glycan array binding signal (z-score),Gal4S6S(b1-4)GlcNAc,2.67
same,glycan array binding signal (z-score),Gal6S(b1-4)Glc,0.459
same,glycan array binding signal (z-score),Gal6S(b1-4)Glc6S,4.96
same,glycan array binding signal (z-score),Gal6S(b1-4)GlcNAc,-0.241
same,glycan array binding signal (z-score),Gal6S(b1-4)GlcNAc6S,4.9
same,glycan array binding signal (z-score),GalNAc(a1-3)Gal,-0.294
same,glycan array binding signal (z-score),GalNAc(a1-3)GalNAc,-0.439
same,glycan array binding signal (z-score),GalNAc(b1-3)Gal,-0.365
same,glycan array binding signal (z-score),[12],-0.458
same,glycan array binding signal (z-score),GalNAc(b1-3)GalNAc,-0.49
same,glycan array binding signal (z-score),GalNAc(b1-4)GlcNAc,-0.44
same,glycan array binding signal (z-score),Glc(a1-4)Glc,-0.347
same,glycan array binding signal (z-score),Glc(a1-6)Glc(a1-6)Glc,-0.125
same,glycan array binding signal (z-score),Glc(b1-4)Glc,0.56
same,glycan array binding signal (z-score),Glc(b1-6)Glc,-0.271
same,glycan array binding signal (z-score),GlcA(b1-3)Gal,-0.024
